Among all 340,000 compounds or so, about 12,000 (3.5%) were called active. Inconclusive means that the source gave no clear call. Such entries were picked first, then a sample of the others. Calls follow the shape of the dose curve; as a rule, active = well fitted inhibition curve with a large enough effect; inconclusive = small, poorly fitted or top-dose-only effect, or another doubt; inactive = no such curve, though single readings can be large or run the other way. No potency is given beside an inconclusive call; the fits are too rough.
Assay: qHTS Assay for Inhibitors of Hepatitis C Virus (HCV)
Details: Huh7.5.1 HCVcc-Cre (HCVcc is cell-culture hepatitis C virus) infection, luciferase reporter, 44 h; activity change, negative = inhibition: at 41.8 µM (top of the series)
Summary of the method: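 Cells seeded at 1,000/well and cultured 4 h, then compounds added followed by HCVcc-Cre virus (~0.5 moi). After 44 h further culture, luciferase substrate was added, plates held 15 min at room temperature, and luminescence read for 15 sec.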
% is scaled to controls: 0 for no effect and ±100 for the full control effect; potency is read from the fitted curve at half-maximal effect; tags tell the direction and shape of the fitted curve.

Structure (SMILES) | Potency | activity change, negative = inhibition
CCc1cc(-c2n[nH]c(C)c2-c2nc3ccccc3n2C)c(O)c(CN2CCN(C)CC2)c1O | inconclusive [inhibitor, partial curve, poor fit] | 
CCOC(=O)C1=CN(CC)S(=O)(=O)NC1CCc1ccccc1 (stereo not given) | inconclusive [inhibitor, full curve] | 
O=S(=O)(c1ccc(SCCOc2cccc(Br)c2)nc1)N1CCCC1 | active: 10 µM | 
O=C(NCC1CCCCC1)c1cccc(S(=O)(=O)N2CCCC2)c1 | inactive | 
CCCCC1C(=O)N(c2ccccc2)N(c2ccccc2)C1=O | inactive | 
Cc1ccc(NC(=O)C(c2ccccc2)N2CCN(C(=O)c3ccco3)CC2)cc1 (stereo not given) | inconclusive [inhibitor, single point] | 
CCN(c1ccccc1)S(=O)(=O)c1ccc(Cl)c(NC(=O)CNC(C)c2ccccc2)c1 (stereo not given) | inconclusive [inhibitor, single point] | 
COCCNC(=O)CSCc1c(F)cccc1Cl | inactive | 
Cc1cccc(-c2sc(Nc3ccccc3)n[n+]2-c2ccccc2)c1 | inactive | 
O=c1[nH]nc(CNc2ccc(O)cc2)c2ccccc12 | inconclusive [inhibitor, single point] | 
CS(=O)(=O)c1ccc(C(=O)N2CCN(Cc3ccccc3)CC2)cc1 | inactive | 
O=C(Nc1ccccc1C(=O)Nc1nnc(C(F)(F)F)s1)c1ccccc1Cl | active: 11.2 µM | 
Oc1ccccc1C1CC(c2cccs2)=NC(c2ccc(Cl)cc2)N1 (stereo not given) | inconclusive [inhibitor, single point] | 
C=CCn1c(COc2ccc3c(c2)CCCC3)nnc1SCC(=O)Nc1cccc(SC)c1 | active: 11.2 µM | 
O=C(NCC(c1ccco1)N1CCCCC1)c1cccc(S(=O)(=O)Nc2ccc(F)cc2)c1 (stereo not given) | inconclusive [inhibitor, single point] | 
CCOc1cccc(/C=N/NC(=O)c2cc(C3CC3)[nH]n2)c1O | active: 11.2 µM | 
Cc1cc(SCC(=O)N/N=C/c2ccc(O)cc2O)nc2ccccc12 | inconclusive [inhibitor, single point] | 
CCc1cc2c(=O)[nH]c(N3CCOCC3)nc2s1 | inactive | 
COc1ccc(CCOC(=O)c2cccc(NC(C)=O)c2)cc1 | inconclusive [inhibitor, single point] | 
Cc1ccc(-n2nc3c(N4CCC(C(=O)NCCc5ccccc5C)CC4)nnc(C)c3c2C)cc1 | active: 7.94 µM | 
O=C(Nc1cccc(S(=O)(=O)N2CCCCCC2)c1)C1=COCCO1 | inconclusive [inhibitor, single point] | 
COc1ccc(OCc2cc(C(=O)NCCN3CCCC(O)C3)no2)c(Cl)c1 (stereo not given) | inconclusive [inhibitor, single point] | 
COc1ccc(Cl)cc1NC(=S)N1CCC(c2ccc(C)cc2)C1 (stereo not given) | inconclusive [inhibitor, single point] | 

Structure (SMILES) | Potency | activity change, negative = inhibition
O=C(Nc1nc2c(s1)CCCC2)c1cccs1 | inconclusive [inhibitor, single point] | 
CN1C(=O)C(C)(C)c2cc(S(=O)(=O)NCc3ccc(Cl)cc3)ccc21 | inconclusive [inhibitor, partial curve] | 
C#CCOCCOCCOCCNc1nc(N2CCN(C(=O)CCCCCCCCCCNC(=O)Cn3cc(CCCCCN)nn3)CC2)nc(N2CCN(C(=O)CCCCCCCCCCNC(=O)[C@H](CO)n3cc(CCCCCN)nn3)CC2)n1 | active: 31.6 µM | 
COC(=O)c1sccc1NC(=O)CC1C(=O)NCCN1C(=O)c1ccccc1 (stereo not given) | inactive | 
CCCC(C(=O)NC1CCCC1)N(C(=O)c1snc(C(N)=O)c1N)c1ccc(OCC)cc1 (stereo not given) | inconclusive [inhibitor, single point] | 
CCN1CCN(c2ccc(S(=O)(=O)N3CCCCC3)cc2NC(=O)/C=C/c2ccc(Cl)cc2)CC1 | active: 31.6 µM | 
COc1ccc(OC)c(NC(=O)c2ccc(-c3cccs3)cc2)c1 | inconclusive [inhibitor, single point] | 
CC(=O)c1ccc(S(=O)(=O)Nc2ccc(C(=O)N(C)CC(=O)Nc3cccc(C)c3C)cc2)cc1 | inconclusive [inhibitor, single point] | 
CC(C)(C)NC(=O)CSc1nc2ccccc2n1-c1ccccc1 | inconclusive [inhibitor, single point] | 
COC(=O)C1=C(C)N(Cc2ccccc2)C(=O)N[C@H]1c1ccc(Br)cc1 | inconclusive [inhibitor, single point] | 
CC(=O)Oc1cc2c(C(=O)NCCCN3CCOCC3)c(C)oc2c2ccccc12 | active: 11.2 µM | 
COc1cc(-c2nnc(CSc3nnc(Nc4ccc(Oc5ccccc5)cc4)s3)o2)cc(OC)c1OC | active: 5.62 µM | 
CCOC(=O)N1CCN(C(=O)c2ccccc2-c2ccccc2)CC1 | inconclusive [inhibitor, full curve, poor fit] | 
CCCc1cc(C(=O)NCCc2ccc(OC)c(OC)c2)no1 | inactive | 
COc1ccc([C@H]2CC(=O)C=C(c3ccnc4ccc(Cl)cc34)C2)cc1 | inconclusive [inhibitor, single point] | 
N#Cc1cc2c(nc1SCC(=O)O)CCCCC2 | inactive | 
O=C(CNc1ccc(Oc2ccccc2)cc1)N1CCOCC1 | inconclusive [inhibitor, single point] | 
COc1ccc(CCN2CCCn3c2nc2c3c(=O)[nH]c(=O)n2C)cc1OC | inactive | 
COc1ccc(NC(=O)c2ccc3c(=O)n(CC4CCCO4)c(=S)[nH]c3c2)c(OC)c1 (stereo not given) | inconclusive [inhibitor, single point] | 
C/C(=N\OCc1nc2ccccc2c(=O)n1/N=C/c1cc([N+](=O)[O-])ccc1O)c1ccccc1 | inconclusive [inhibitor, single point] | 
CC(C)(C)c1ccc(-c2nc3n(c(=O)c2C#N)CCS3)cc1 | inactive | 
O=C(Cc1ccc(NC(=O)C2CCCN(C(=O)C3CCC3)C2)cc1)Nc1ccc(C(=O)N2CCOCC2)cc1 (stereo not given) |  | inactive: -7.45% [at 8.37 µM]

Source: PubChem BioAssay AID651820 (National Center for Advancing Translational Sciences (NCATS), 2012)
